From article PMC3914973, “A Regulatory Feedback Loop between HIF-1α and PIM2 in HepG2 Cells” (PLoS ONE, 2014)

Target: T1, His-PIM2 protein (human, UniProt Q9P1W9 1-311)
T1 construct: Serine/threonine kinase PIM2; also called His-tagged PIM2
Test: pull-down; GST pull-down: His-PIM2 mixed with GST or GST-HIF-1α (575-826aa) in PBS binding buffer pH 7.4 at 4°C for 2 h, Glutathione-Sepharose 4B beads 1 h, washed five times with PBS, western blot
Conditions: both partners purified

B1: GST-HIF-1α ([…]aa) fusion protein (domain or fragment)
chain: not shown
notes: source: E. coli BL21 (DE3), purified (Glutathione-Sepharose 4B)
Does B1 bind?
Result: binds
